Values marked as one replicate rest on one cluster of the flow cell; about a third of the high ones do not repeat.
Tested on: ATP
Assay: switch fluorescence ratio, 500 uM ATP over buffer (Cy3 cluster intensity, sum of 5 cycles each) (fold (ratio)); higher = stronger signal-on switching upon ATP binding; sequences stand for … in TCGTCGGCAGCGTCAGATGTGTATAAGAGACAGTTTTTTTTTTTTTTTTTTTTTTTTT…TC
Conditions: aptamer strand: ATP DNA aptamer (quencher-CACCTGGGGGAGTATTGCGGAGGAAGG + anchor), 100 nM annealed; ATP concentration: 500 uM; one replicate
Procedure, shortened: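 Five buffer/ATP imaging cycles were run on Cy3-labelled switching-strand clusters on a modified Illumina MiSeq flow-cell, with NaOH stripping and re-annealing between cycles. In each cycle, clusters annealed to 100 nM quencher-labelled ATP aptamer were imaged in selection buffer, then after 15 min with 500 uM ATP at 22 °C. Per cluster, the fluorescence ratio is summed target-cycle over summed buffer-cycle Cy3 intensity, averaged per switch-domain sequence. Only clusters within 100-1000 RFU were kept.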
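Further: ATP exposure 15 min at 22 °C before imaging.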

Sequence | switch fluorescence ratio
TAATGATTTG | 1.01
GCTGGATGCT | 0.994
AATGCTCTGA | 1.03
TGCTGAATAG | 1.03
TTGACGGTG | 0.997
CCGCTCTCTT | 2.14
TTGCGCTTTT | 1.07
GCATCATGTG | 1.01
TTGTAGTATT | 0.975
GTATGACCGA | 0.908
CAGCCAAAGG | 1.01
CGTAATTAGT | 1.07
ATTTTTCCA | 1.03
AGAAGGCGGT | 0.979
TTACTTAGCT | 1.04
GTTATGGGTT | 0.963
GCGAAGGGCG | 0.992
ACGTTCCGCC | 1.93
CCTATATATT | 1.05
AAGCCCAAAC | 1.15
GCCATACCGG | 1.02
ATGTCGGTTC | 0.973
TATAGATACG | 1.05
TGTGTACTCT | 1.03
ATGGTCGCCT | 0.983

Sequence | switch fluorescence ratio
CCTTTCACTA | 1.08
AAAACTGAAA | 0.973
AGAGTAGTGA | 1.02
AAGGTGTGAC | 1.02
GTGCACCGGC | 1.03
GAGTGTTGGA | 1.01
AGGGCTAGAG | 0.985
CTGGCAGTCA | 1.05
GTCTGTTGGC | 1.01
GCTGCAGGGA | 1.01
AACTCGCCGG | 1.1
ACCTTTTGGG | 1.09
TCTATCCGTT | 0.99
TCGTTCTTGT | 0.999
ACAATACTGG | 1.27
TTCCTAGTG | 1
GGCCCCAGGG | 1.44
ATGTATGGGA | 0.954
GGTGGAGCGC | 0.969
GCATAAATGA | 0.993
AACCACTCTG | 1.05
TTTGGTCTAA | 0.997
GGGTTCTCGA | 0.972
GTCAGCTAGT | 1.02
GTCCTGGAGC | 1.05

Sequence | switch fluorescence ratio
AGAGAGATCG | 1.03
TTTCGGGTGT | 1.02
ATAATAATTC | 1.04
GCTCGAAAGC | 1.11
ACAACAGATC | 1.03
AGGGCCACAG | 0.989
TTGGTCTCTC | 0.986
CGTCTTGATG | 1.03
TGGCGCGATA | 1.02
CTCACCATTT | 1
AGAGGGTGGA | 1
TTAAGCAGCG | 1.04
CTTAAGTGGA | 1.01
CCATTGCGTC | 1.06
TAGTTTTTC | 0.981
CGCAGAGGGG | 1.05
TCGACGGACT | 1.15
TATTGCGCGC | 1.39
CATTTATACT | 1.01
GACCTAGGT | 0.867
GGTATATAAG | 1.02
AACATCTCAT | 0.986
CGGATACTCG | 1.15
TTCTCCTCGT | 1.06
AAACATTCTG | 1.04

Sequence | switch fluorescence ratio
CCGCTTGGAG | 1.2
CGTGTGGGAG | 1.02
TTACTACGCG | 1.04
CATTAGGCCT | 1
TTTCCGCCG | 1.11
GGTGAGCACA | 1.04
TGGGTGGCTG | 1.16
GGCAGGATGA | 1.01
TATCTAGCTG | 0.943
TGTAGATTTG | 1.03
CCTGGGATGG | 0.997
GGTCCATGAC | 0.96
ATTCTTACGA | 1.02
ACCAGATTAC | 1.06
GTGAGAGACC | 0.944
CGTGGGTACT | 1.01
GTTGCGTGAG | 0.978
TAAAATGGCC | 0.973
TATGACCATG | 0.991
ACGTGGTCAG | 1.03
CTGATTAGCT | 1.01
TTGCTCGCTA | 1.2
GAGCACAAAA | 1.08
ACGTAGTTGC | 1.07
ATTCGAAGA | 0.978

Sequence | switch fluorescence ratio
CGAGCAGAGG | 1.13
TAATTCGAGG | 0.977
TAACAAGGTT | 0.979
ATGCCTAACG | 0.993
ACAGGGTTAG | 1.01
GGCGAGTTCT | 0.984
ATGATATATT | 1.01
GGAACTTATT | 1
AGTCCCGGGC | 1
TCCCCAGCTT | 1.49
TAAATTGGTG | 0.999
CGAGGGCACT | 1.04
ACCCTGTTTT | 0.912
AACGCGGCTC | 1.17
CTCAATTCAC | 1.12
AGTGCAAGAA | 1.24
GTGGGTCCGT | 0.979
ACCAGCGATA | 3.32
CACCTGATAT | 1.03
GTGTACAGTT | 0.974
TATGCACTCA | 1.09
AGGCGCCTTC | 1.01
AAATCTGGAA | 1.04
TGGTGGTCAA | 1.01
CTAAGCACGT | 1.14

Sequence | switch fluorescence ratio
ATTTTCC | 1.06
GGGAACACTG | 1.01
TCAAGTCAGC | 1
AGTGATGAGT | 0.963
TACATGAAA | 1.02
ACCGCGCCGT | 1.09
CAGTCACTTC | 1.01
CTTGCCACGG | 0.993
AGACTTCGCC | 1.07
ACTGCCC | 1.08
CCGACATTTG | 0.98
ATCTGAGCGG | 0.956
CCACTACACT | 1.27
CCATAATCCG | 1.07
TGTGTTGCAT | 1.01
ATAATGAGAT | 0.979
AGGAAAAGAA | 0.992
CACGATTACG | 1.03
ATTAACGAGT | 0.977
ATCAATGTCC | 1.03
GGAAACATCT | 0.984
TATCGCCAGG | 1.36
GTCTCAAATT | 1.02
GCTCGCGTTA | 1.09
AAACGATTTT | 1.02

Sequence | switch fluorescence ratio
GAACGGAGAG | 1.06
ACGGGTATGC | 1.02
CCCACCTAAT | 1.06
GCGACTGATT | 0.999
CTAAAAAGTC | 0.995
TAAATTGCAC | 1.07
AGAAGGGACC | 1.03
TTCAAGACTC | 1.16
ATCCTTGGAA | 1.02
GGTCGTCGCA | 0.953
TCAGCTTAT | 0.991
ATCCCTTGTT | 1
ATAGTGAATG | 1.02
GGCGTTAGGT | 0.996
AGGCTATATA | 1.01
GTGATGACCC | 1.02
AAGCCGGGTA | 1.01
GAGCACCCAA | 1.02
ATAGAGGACT | 1.01
CACTCCGAAT | 4.03
GGGTAGAAGG | 1.01
CGCCGGCTGG | 1.05
ATGACTGCAG | 0.919
CGGGCCGGAT | 0.973
GGGTCAGGGT | 1

Sequence | switch fluorescence ratio
GACTGAGTTT | 0.984
GTATTCAAAC | 0.965
AACCTGTAGC | 1.32
ATCGTTGGCA | 1.02
ATACATCGAC | 1.09
GGGCGCTTTT | 1.3
CGTCCGCGG | 5.18
TACAAGAACA | 1.03
AGCTAATCAC | 1.37
CGCTAGATTA | 1.01
ATGCTTGTTT | 1
GGGATGGTAA | 0.989
CTATAGGGGC | 1.01
TCTCTGTCG | 1.02
GATCGCTAGT | 1.01
CAGGGCTGCC | 0.98
CTATACAGAG | 1.03
TGCCGTCTG | 1.02
GCTAATGTGA | 0.977
CACCAGGTGG | 3.04
CAGAGTTGTT | 0.952
CATTATTGTC | 0.975
CCGACGGGAG | 1.25
TGAGTAGCAT | 0.979
GGCCCCTAGA | 0.993

Source: the supplement of paper PMC10126150
